This is an account of results in PMC6919601, “Identification of Plasmodium dipeptidyl aminopeptidase allosteric inhibitors by high throughput screening” (PLoS ONE, 2019).

Out of some 110,000 compounds screened, about 230 (0.21%) showed an effect of 50% or more. The list shows a part of the results.
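Also: 30 min substrate incubation versus DMSO and 10 µM JCP410 controls.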

DPAP1, sequence (Q8IIJ9 whole entry, looked up): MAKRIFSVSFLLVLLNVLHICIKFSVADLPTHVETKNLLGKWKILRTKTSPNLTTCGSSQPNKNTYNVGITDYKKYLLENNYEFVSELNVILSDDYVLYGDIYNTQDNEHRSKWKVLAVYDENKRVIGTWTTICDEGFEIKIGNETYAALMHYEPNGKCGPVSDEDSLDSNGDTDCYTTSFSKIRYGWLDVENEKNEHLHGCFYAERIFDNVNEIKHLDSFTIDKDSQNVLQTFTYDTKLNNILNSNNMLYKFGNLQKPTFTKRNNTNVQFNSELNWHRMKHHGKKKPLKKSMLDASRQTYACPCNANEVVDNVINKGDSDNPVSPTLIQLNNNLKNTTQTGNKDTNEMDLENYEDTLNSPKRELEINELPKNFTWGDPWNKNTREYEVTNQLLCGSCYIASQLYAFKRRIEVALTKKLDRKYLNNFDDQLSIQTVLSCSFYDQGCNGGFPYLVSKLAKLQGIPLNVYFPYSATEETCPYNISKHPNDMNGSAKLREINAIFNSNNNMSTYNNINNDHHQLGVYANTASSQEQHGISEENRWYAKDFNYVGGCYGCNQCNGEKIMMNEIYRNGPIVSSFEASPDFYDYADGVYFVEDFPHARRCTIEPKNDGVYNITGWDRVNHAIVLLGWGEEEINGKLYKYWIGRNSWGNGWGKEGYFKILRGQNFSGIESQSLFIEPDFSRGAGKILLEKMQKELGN

This assay addresses DPAP1 (Plasmodium falciparum, UniProt Q8IIJ9). Briefly: primary screen, percent inhibition; read by cleavage of a fluorogenic dipeptide substrate; higher = more effect of the substance. Details: species or system P. falciparum D10 trophozoite lysates; single well.
Regarding `O=C(Nc1c(O)c2ccccc2oc1=O)c1ccco1`, the “% Inhibition @ 10 uM” value stood at 4.95%.

Regarding `Brc1ccccc1OCCCCCN1CCCCC1`, the “% Inhibition @ 10 uM” value amounted to 0.135%.

Regarding `CC(C)OC(=O)C1=c2s/c(=C\c3cccnc3)c(=O)n2C(N)=C(C#N)C1c1cccnc1` (centres unmarked), the “% Inhibition @ 10 uM” value came out at 0.147%. `O=C(Nc1cccc([N+](=O)[O-])c1)c1cc(S(=O)(=O)Nc2ccccc2)ccc1Cl`: the “% Inhibition @ 10 uM” value is recorded as 1.64%.

For `CCCCCOc1ccc(C(=O)N(Cc2ccc(OC)cc2)C2CCS(=O)(=O)C2)cc1` (centres unmarked), the “% Inhibition @ 10 uM” value is -1.18%. As to `C1=C(c2ccc(-c3ccccc3)cc2)N2CCN=C2S1`, the “% Inhibition @ 10 uM” value is -7.56%. As for `COc1cccc(NC(=O)CN(Cc2ccccc2)S(C)(=O)=O)c1`, the “% Inhibition @ 10 uM” value is reported as -1.52%. In the case of `O=C(Cn1c(=O)c2cccn2c2cccnc21)NCc1ccccc1` it was 1.63%. In the case of `CC(CCc1ccccc1)NC(=O)c1cnc2ccccn2c1=O` (centres unmarked) it was 1.72%; in that of `CC(C)NC(=O)CCc1nc(-c2ccc(C(C)(C)C)cc2)no1`, -1.35%.

For the molecule `COc1ccccc1CN1CCN(Cc2ccccc2F)CC1`, the “% Inhibition @ 10 uM” value was determined as 1.92%. To `O=C(c1ccc(S(=O)(=O)N2CCCCC2)cc1)n1cnc2ccccc21` belongs 0.147%; to `Cc1[nH]c2ccccc2c1CC1C(=O)N(C)C(=O)N(C)C1=O`, -1.46%; to `COc1cccc(C(=O)N2N=C(C(F)(F)F)CC2(O)c2ccncc2)c1` (centres unmarked), -3.95%. To `Cc1c(CN2CCCC2)c(O)n(Cc2ccccc2)c(=O)c1C#N` belongs -3.07%; to `O=C(O)c1nccnc1C(=O)Nc1ccccn1`, -1.08%; to `COc1ccc(Cc2nnc(SCC(N)=O)n2-c2ccccc2)cc1Cl`, 0.00706%. To `Cc1c(C(=O)NCc2ccccc2)cnn1-c1ccccc1` belongs 5.39%; to `COCCCNc1ncnc2sc3c(c12)CCC(C)C3` (centres unmarked), -2.65%. With `COc1cc2c(cc1OC)CN(Cc1ccc(C)s1)CC2`, the “% Inhibition @ 10 uM” value is given as -2.21%. Turning to `Cc1cc(=O)n2nc(N(C)CC(=O)NC3CCCCCC3)sc2n1`, the “% Inhibition @ 10 uM” value was -2%. For the molecule `Cc1nc2c3ccccc3nc(SCC(=O)NCCc3ccc(S(N)(=O)=O)cc3)n2n1`, the “% Inhibition @ 10 uM” value is reported as 3.38%. In the case of `c1ccc(-c2cn3c4ccccc4nc3n2CCN2CCCCC2)cc1` it was -3.32%; in that of `Cc1ccccc1NC(=O)c1cc2ccccc2oc1=O`, 4.12%; in that of `Cc1c(C(=O)N2CCCC2)cccc1[N+](=O)[O-]`, -0.856%. In the case of `CCN(CCCc1ccccc1)CCN(C)C` it was -5.26%; in that of `NC(=O)CSc1nc(SCC(N)=O)c2c3c(sc2n1)CN(Cc1ccccc1)CC3`, -4.33%; in that of `COc1cc(Br)cc(C=O)c1O`, 3.66%. To `O=C(Nc1nc(-c2ccc(S(=O)(=O)N3CCOCC3)cc2)cs1)C1COc2ccccc2O1` (centres unmarked) belongs 1.64%; to `O=c1c2cc3c(=O)n(-c4ccccc4O)c(=O)c3cc2c(=O)n1-c1ccccc1O`, -0.0369%. With `CN(Cc1ccccc1)C(=O)CN(C)S(=O)(=O)c1ccc2[nH]c3c(c2c1)CCCC3`, the “% Inhibition @ 10 uM” value is on record as -3.6%.

Turning to `Cc1ccc2oc3c(c(=O)c2c1)C(c1ccc(O)cc1)N(CCCN1CCOCC1)C3=O` (centres unmarked), the “% Inhibition @ 10 uM” value is -2.91%. Consider `CCOc1ccc2ccccc2c1/C=C1/NC(=O)N(c2ccccc2)C1=O`, for which the “% Inhibition @ 10 uM” value is listed as 0.722%.

With `CN(CC(=O)NCc1ccc(Cl)cc1)c1nnc(N2CCCC2=O)s1`, the “% Inhibition @ 10 uM” value was -6.38%. For `CCc1nc(NC(=O)NS(=O)(=O)c2ccccc2C(=O)OC)nc(OC)n1`, the “% Inhibition @ 10 uM” value was 13.3%. To `FC(F)Oc1ccccc1C1C=C(c2ccc(Cl)cc2)Nc2ncnn21` (centres unmarked) belongs 4.86%. Turning to `COc1ccc(C(=O)/C=C/c2ccc([N+](=O)[O-])cc2)cc1`, the “% Inhibition @ 10 uM” value is -3.58%. In the case of `Cc1cccc(NC(=O)CN2C(=O)C3C4C=CC(C4)C3C2=O)c1C` (centres unmarked) it was 5.49%; in that of `CCOC(=O)c1cc2c(C)nn(-c3ccccc3)c2s1`, 4.17%; in that of `COc1ccc(NC(=O)Nc2ccc(OC)cc2)cc1`, -0.0494%. In the case of `CCSCCOC(=O)C1=C(C)N(C)C(=O)NC1c1ccc(OC)cc1` (centres unmarked) it was -2.87%. For the molecule `Cc1ccc(N2C(=O)NC(=O)/C(=C/Nc3ccc(Br)cn3)C2=O)cc1`, the “% Inhibition @ 10 uM” value was found to be 2.36%. On to `Cc1cc(C)c2c(n1)nn1c(C)c(CCC(=O)NCCc3ccc(Cl)cc3)c(C)nc21`, for which the “% Inhibition @ 10 uM” value is on record as 7.05%.

As for `N#CCCN1CCN(S(=O)(=O)c2ccc(S(N)(=O)=O)cc2)CC1`, the “% Inhibition @ 10 uM” value is reported as -1.82%.

For the molecule `Cc1ccc(CSc2nc(=O)c3c(n2C)NC(=O)CC3c2ccccc2OC(C)C)cc1` (centres unmarked), the “% Inhibition @ 10 uM” value amounted to 3.84%. In the case of `CC(C)c1nc2ccccc2n1Cc1ccccc1F` it was 1.12%; in that of `CCc1ccc(/C=c2\sc3nc(-c4ccc(OC)c(OC)c4)nn3c2=O)cc1`, -2.98%. Turning to `CCCCNC(=O)CCc1c(C)nc2c(c(C)nn2-c2ccc(C)cc2)c1C`, the “% Inhibition @ 10 uM” value came to 4.14%. In the case of `Cc1cc(NC(=O)C23CC4CC(C2)CC(n2cncn2)(C4)C3)ccc1Br` it was 7.76%; in that of `CCCCN(CC)CCNC(=O)C1c2ccccc2C(=O)N(CCOC)C1c1ccc(F)cc1` (centres unmarked), -2.9%; in that of `CC(Oc1ccccc1)C(=O)N1CCN(c2cccc(Cl)c2)CC1` (centres unmarked), -3.19%.

As to `COc1cccc2cc(-c3nc(-c4nonc4N)no3)c(=O)oc12`, the “% Inhibition @ 10 uM” value is -5.05%. To `NC(=O)c1c(NC(=O)COc2ccccc2Br)sc2c1CCCC2` belongs -2.66%.

Take `CC1CC(C)CN(C(=O)CSc2nnc(-c3ccccc3)o2)C1` (centres unmarked): the “% Inhibition @ 10 uM” value turned out to be 2.42%. In the case of `Cc1ccc(N(CC(O)CN2CCOCC2)S(=O)(=O)c2ccc(C)cc2)cc1` (centres unmarked) it was -4.5%. In the case of `CCN1C(=O)/C(=C\c2ccc(N(C)C)cc2)C(C(=O)OC)=C1C`, the “% Inhibition @ 10 uM” value is on record as -1.32%. To `CCCC1C2CC=CC2c2cc(C(=O)O)ccc2N1C(=O)c1cccc([N+](=O)[O-])c1` (centres unmarked) belongs 1.08%; to `CCOC(=O)C1CCCN(Cc2ccc(Cl)cc2)C1` (centres unmarked), -1.86%.

For the molecule `CN1C(=O)CC(N2CCN(c3ncccn3)CC2)C1=O` (centres unmarked), the “% Inhibition @ 10 uM” value was -3.48%. To `O=c1c2ccccc2nc2n1CCS2` belongs -7.15%; to `COc1ccc(N(CC(=O)NC(C)C)S(=O)(=O)c2ccc(C)cc2)c(OC)c1`, -1.43%. In the case of `CCOC(=O)C1=CN(C(C)C)C=C(C(=O)OCC)C1c1ccc(F)c(Br)c1`, the “% Inhibition @ 10 uM” value was -1.48%. Take `Cc1cc(NC(=O)Nc2cccs2)no1`: the “% Inhibition @ 10 uM” value is reported as 0.596%. In the case of `Cc1ccc(CS(=O)(=O)c2cn(CC(=O)N(C)Cc3ccccc3)c3ccccc23)cc1` it was -4.89%; in that of `CCOC(=O)c1c(C)oc2cc(Cl)c(OC)c(OC)c12`, -5.59%; in that of `Cc1ccc(-c2nc(CS(=O)CC(=O)NCCCOC(C)C)c(C)o2)cc1` (centres unmarked), -2.85%.

Turning to `CCOC(=O)C1C(=O)CC(O)(c2ccc(Br)cc2)CC1C=C(Cl)Cl` (centres unmarked), the “% Inhibition @ 10 uM” value is 0.035%. In the case of `CC(C)N1C(=O)S/C(=C/c2ccc(N3CCCCC3)o2)C1=O` it was -1.28%; in that of `CC(C)c1ccc(NC(=O)C2C3C=CC(CC3)C2C(=O)O)cc1` (centres unmarked), -1.04%; in that of `COc1cccc(CN2CCN(c3ccc(F)cc3)CC2)c1`, 1.48%. Turning to `COC(=O)C1=CN(CC2CCCO2)C=C(C(=O)OC)C1c1ccc2c(c1)OCO2` (centres unmarked), the “% Inhibition @ 10 uM” value came to 1.84%. To `O=c1c(-c2ccccc2)c(N2CCN(Cc3ccccc3)CC2)c1=O` belongs 0.589%; to `Nc1c(-c2nc(-c3cccnc3)no2)nnn1-c1ccccc1C(F)(F)F`, -0.759%.

`COCCCN1CN(CCc2ccccc2)CNC1=S`: the “% Inhibition @ 10 uM” value is recorded as -1.92%.

For the molecule `COC(=O)c1cc2oc(C)cc2n1CC(=O)NCc1ccco1`, the “% Inhibition @ 10 uM” value is reported as -11.9%.

As for `CC(=O)N(CN1C(=O)c2ccccc2C1=O)c1ccccc1C`, the “% Inhibition @ 10 uM” value was found to be 2.27%. Turning to `Cc1ccc(S(=O)(=O)NCC2CCC(C(=O)NCc3ccc(Cl)cc3)CC2)cc1` (centres unmarked), the “% Inhibition @ 10 uM” value was found to be 2.35%. `Cc1cc(Cl)ccc1OCc1cc(C2C(C#N)=C(N)Oc3[nH]nc(C)c32)sc1C` (centres unmarked): the “% Inhibition @ 10 uM” value is 3.99%. For `CC1(C)CC(=O)C2=C(C1)c1c(ccc3ccccc13)NC2c1ccc(-c2ccc(Br)cc2)o1` (centres unmarked), the “% Inhibition @ 10 uM” value was -4.3%. To `Cc1nc2cccnc2n1-c1ccc(C(=O)NC2CCCCC2C)cc1` (centres unmarked) belongs -0.0668%. In the case of `O=C(Cc1ccc(F)cc1F)Nc1ccccc1` it was 6.14%; in that of `CCOC(=O)N1CCC(NC(=O)CS(=O)(=O)Cc2nc(-c3cccc(Cl)c3)oc2C)CC1`, 14.4%. Turning to `O=C(CCN1C(=O)c2ccccc2C1=O)N1CCN(c2ccccc2)CC1`, the “% Inhibition @ 10 uM” value is recorded as 5.31%.

Take `CC1CCN(C(=O)CN(c2ccc(Cl)cc2Cl)S(=O)(=O)c2ccccc2)CC1`: the “% Inhibition @ 10 uM” value is recorded as -2.03%. To `O=C(NCCC1=CCCCC1)c1cc2c(s1)CS(=O)(=O)C2` belongs -6.79%; to `COc1ccc(Br)cc1/C=C1\Cc2ccccc2C1=O`, 4.06%; to `Cc1ccc(S(=O)(=O)N2CCCC2C(=O)Nc2nc3c(s2)CCCC3)cc1` (centres unmarked), -3.92%. To `CCOC(=O)N1CCN(C(=O)/C(=C\c2ccc3c(c2)OCO3)NC(=O)c2cccs2)CC1` belongs -2.54%; to `O=C1NC(c2cccc(O)c2)C(C(=O)c2cccnc2)C(O)(C(F)(F)F)N1` (centres unmarked), -5%; to `Cc1ccc(-c2nc3c4cnn(-c5c(F)c(F)cc(F)c5F)c4ncn3n2)cc1`, -4.64%. To `CC(=O)N[C@H]1[C@H](Oc2cccc(C)c2)O[C@@H]2COC(C)(C)O[C@H]2[C@@H]1O` belongs 4%; to `COc1ccccc1N1CCN(C(=O)CN(CCc2ccccc2)S(C)(=O)=O)CC1`, 0.408%; to `CC(=O)N1CC[C@@]2(O)CCCC[C@@H]2[C@H]1c1cccc(Cl)c1Cl`, -1.07%. On to `O=CN1CCN(C(=O)CCCC(=O)c2ccccc2)CC1`, for which the “% Inhibition @ 10 uM” value is -1.68%.

Regarding `COc1ccc(N2CCN(C(=O)CN(c3cc(Cl)cc(Cl)c3)S(C)(=O)=O)CC2)cc1`, the “% Inhibition @ 10 uM” value turned out to be 4.88%. To `Cc1c(C(=O)O)oc2ccc(S(=O)(=O)NCc3ccc4c(c3)OCO4)cc12` belongs 1.16%; to `Cc1nn(C(C)C(=O)NCc2ccc(OC(C)C)cc2)c(=O)c2nn(-c3ccccc3)c(C)c12` (centres unmarked), 3.16%; to `NC1=C(c2ccccc2)S(=O)(=O)c2cc(OCC(F)(F)F)ccc21`, -4.49%.
